Measured values from the supplement of paper PMC4604168 (melanoma cell lines).
Some of the results follow. Many values rest on one well or one pass, so single values are uncertain.

Legend:
Assay in all cases: cell count relative to DMSO control; melanoma cells; higher = more viable cells
Settings in all cases: library dose: standard library concentration; 72 h; first compound 2 µM
G361 = system: G361
IPC-298 = system: IPC-298
IST-MEL1 = system: IST-MEL1
LB2518-MEL = system: LB2518-MEL
LOXIMVI = system: LOXIMVI
MEL-HO = system: MEL-HO
MZ2-MEL = system: MZ2-MEL
MeWo = system: MeWo
RPMI7951 = system: RPMI7951
RVH-421 = system: RVH-421
SkMel28 = system: SkMel28
SkMel2 = system: SkMel2
SkMel30 = system: SkMel30
SkMel5 = system: SkMel5
UACC257 = system: UACC257
UACC62 = system: UACC62
WM115 = system: WM115
WM1716 = system: WM1716
WM1745 = system: WM1745
WM3526 = system: WM3526
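Further: cells treated in 1,536-well plates, then fixed and DAPI-stained, with nuclei counted from automated high-throughput microscope images.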

Compound	cell count (G361) [%]	cell count (IPC-298) [%]	cell count (IST-MEL1) [%]	cell count (LB2518-MEL) [%]	cell count (LOXIMVI) [%]	cell count (MEL-HO) [%]	cell count (MZ2-MEL) [%]	cell count (MeWo) [%]	cell count (RPMI7951) [%]	cell count (RVH-421) [%]	cell count (SkMel28) [%]	cell count (SkMel2) [%]	cell count (SkMel30) [%]	cell count (SkMel5) [%]	cell count (UACC257) [%]	cell count (UACC62) [%]	cell count (WM115) [%]	cell count (WM1716) [%]	cell count (WM1745) [%]	cell count (WM3526) [%]
Cn1sc(=O)n(Cc2ccccc2)c1=O + Cn1cncc1[C@@](N)(c1ccc(Cl)cc1)c1ccc2c(c1)c(-c1cccc(Cl)c1)cc(=O)n2C [tipifarnib] (partner dose 0.05 µM)	68.5	97.5	67.7	69.3	71.3	95.3	91.7	73.8	51.4	76	59.9	81.5	68.7	67.1	103	73.3	66.8	59.6	70.3	82.3
C[C@@H](N)c1ccc(C(=O)Nc2ccnc3[nH]ccc23)cc1 + C[C@]1(c2nc3c(C(N)=O)cccc3[nH]2)CCCN1 [Veliparib] (partner dose 7 µM)	92.2	104	84.6	88.9	116	74.9	51.3	67.3	57.4	87	69	89.6	82.4	68.1	61.6	63.6	87.6	50.3	66.3	83.5
C[C@@H](N)c1ccc(C(=O)Nc2ccnc3[nH]ccc23)cc1 + CCCCCCCCc1ccc(CCC(N)(CO)CO)cc1 [fingolimod] (partner dose 10 µM)	0.976	20.1	17	0.75	22.3	1.05	0.443	8.12	0.396	3.05	0.816	0.217	11.3	28.6	24.4	16.3	9.74	30.2	2.97	38.9
C[C@@H](N)c1ccc(C(=O)Nc2ccnc3[nH]ccc23)cc1 + O=C(O)c1ccc(-c2c[nH]c3ncc(-c4ccccc4)cc23)cc1C1CCCC1 [GSK650394] (partner dose 0.8 µM)	79.5	89.3	71.7	108	67.7	68.8	60.8	73.3	52.2	56.4	64.7	90.8	93.8	49.5	61.9	83.4	94.3	21.8	61.3	78.4
CCCCCCCCCCCCCCCCCCOP(=O)([O-])OC1CC[N+](C)(C)CC1 [Perifosine] + CC(=O)c1c(C)c2cnc(Nc3ccc(N4CCNCC4)cn3)nc2n(C2CCCC2)c1=O [palbociclib] (partner dose 0.2 µM)	67.8	74.2	83.7	73.1	69.3	89.2	73.3	65.2	29.5	74.7	35.7	68	74.4	79.5	74.3	68.4	67.9	41	73.1	55.5
CCCCCCCCCCCCCCCCCCOP(=O)([O-])OC1CC[N+](C)(C)CC1 [Perifosine] + Cc1nc(Nc2ncc(C(=O)Nc3c(C)cccc3Cl)s2)cc(N2CCN(CCO)CC2)n1 [dasatanib] (partner dose 0.02 µM)	78.4	92.2	78.8	89	34.6	73.6	61.8	100	6.77	72.5	59.4	80.5	91.8	62.7	84.2	104	68.2	64.7	41	90.6
C[C@@H](N)c1ccc(C(=O)Nc2ccnc3[nH]ccc23)cc1 + CO[C@@H]1[C@H](N(C)C(=O)c2ccccc2)C[C@H]2O[C@]1(C)n1c3ccccc3c3c4c(c5c6ccccc6n2c5c31)C(=O)NC4 [Midostaurin] (partner dose 0.4 µM)	42.1	81.1	55.5	55.1	35.5	63.9	51.1	61.6	19.2	37.8	43.1	69.7	71.6	31.9	44.4	46.8	56.2	34.8	19.7	82.9
CCCCCCCCCCCCCCCCCCOP(=O)([O-])OC1CC[N+](C)(C)CC1 [Perifosine] + C[C@]1(c2nc3c(C(N)=O)cccc3[nH]2)CCCN1 [Veliparib] (partner dose 7 µM)	103	90.4	100	74.7	66.4	89.5	95.4	108	51.4	103	64.9	87.7	84.8	93.8	99.9	55.9	85.3	90.8	85.3	90.1
C[C@@H](N)c1ccc(C(=O)Nc2ccnc3[nH]ccc23)cc1 + CCCS(=O)(=O)Nc1ccc(F)c(C(=O)c2c[nH]c3ncc(Cl)cc23)c1F [PLX4720] (partner dose 0.4 µM)	72.2	87.8	66.6	96	91.7	48.5	44.6	67.9	49.6	48	65.5	92.4	70.2	38.5	48.9	62.1	71.5	43.5	47.6	39.7
C[C@@H](N)c1ccc(C(=O)Nc2ccnc3[nH]ccc23)cc1 + CN1CCN(c2ccc3nc(-c4c(N)c5c(F)cccc5[nH]c4=O)[nH]c3c2)CC1 [Dovitinib] (partner dose 0.5 µM)	55.1	58.9	67.7	53.4	58.4	45.5	31.5	45.7	43.4	46.9	46.5	56.2	78.5	61.3	50.7	79.8	66.8	49.1	28.8	77.5
C[C@@H](N)c1ccc(C(=O)Nc2ccnc3[nH]ccc23)cc1 + COc1cc2c(Oc3ccc4[nH]c(C)cc4c3F)ncnc2cc1OCCCN1CCCC1 [cediranib] (partner dose 2 µM)	81.6	97.6	103	103	66.8	81.5	55	75	46.6	59.3	83	115	114	46.5	57.8	86.4	72.3	35.3	51.8	81.6
C[C@@H](N)c1ccc(C(=O)Nc2ccnc3[nH]ccc23)cc1 + Nc1ccn([C@@H]2O[C@H](CO)[C@@H](O)C2(F)F)c(=O)n1 [gemcitabine] (partner dose 0.002 µM)	35.2	50	50.2	79.9	66.8	46.2	55.5	38.6	52.5	32.5	128	117	107	73	70.3	77.7	109	34.5	36.6	139
C[C@@H](N)c1ccc(C(=O)Nc2ccnc3[nH]ccc23)cc1 + O=C(Nc1cccc(Cl)c1)Nc1ncc(CCNc2ncnc3ccsc23)s1 [SNS314] (partner dose 0.004 µM)	75.2	90.4	54.4	110	75.7	60.5	57.6	41.2	50.2	43.3	35.8	83.6	87.4	65.1	60.1	76	53.5	33	49.8	81
CCCCCCCCCCCCCCCCCCOP(=O)([O-])OC1CC[N+](C)(C)CC1 [Perifosine] + O=C(O)[C@@H]1[O][Sb](=[O])([O][Sb]2(=[O])[O][C@H]([C@H](O)CO)[C@H](O)[C@H](C(=O)O)[O]2)[O][C@H]([C@H](O)CO)[C@@H]1O [stibogluconate] (partner dose 10 µM)	121	93	104	111	88.3	107	102	91.9	95.7	101	42.5	114	93	106	122	91.2	98.3	118	122	82.3
Cn1sc(=O)n(Cc2ccccc2)c1=O + CC1(C)NC(=O)N(c2ccc([N+](=O)[O-])c(C(F)(F)F)c2)C1=O [nilutamide] (partner dose 5 µM)	77.2	95.3	99.6	91.8	92.2	78.4	97.6	84.2	59.7	124	85.1	92.8	87	80.5	94.4	87.7	77.5	90.9	127	81.3
C[C@@H](N)c1ccc(C(=O)Nc2ccnc3[nH]ccc23)cc1 + NCC(=O)Nc1ccc(-n2nc(C(F)(F)F)cc2-c2ccc3c(ccc4ccccc43)c2)cc1 [OSU03012] (partner dose 5 µM)	60.2	55	81.1	98.7	74.9	66.9	44.8	79.2	70.1	51	26.1	35.1	26.8	39.2	52.4	47	90.7	51.3	50	44.1
C[C@@H](N)c1ccc(C(=O)Nc2ccnc3[nH]ccc23)cc1 + CC(C)C[C@H](NC(=O)[C@H](Cc1ccccc1)NC(=O)c1cnccn1)B(O)O [Bortezomib] (partner dose 0.005 µM)	1.16	8.5	8.25	0.935	9.69	17.4	2.02	8.64	2.65	4.67	17.8	26.7	19.5	19.5	45.7	40.9	24.6	13.9	14.4	19.3
CCCCCCCCCCCCCCCCCCOP(=O)([O-])OC1CC[N+](C)(C)CC1 [Perifosine] + Cn1nnc2c(C(N)=O)ncn2c1=O [temozolomide] (partner dose 10 µM)	126	100	83.3	133	88.9	103	111	103	54.6	122	66.4	111	81	111	115	69.6	83.5	59.2	106	101
CCCCCCCCCCCCCCCCCCOP(=O)([O-])OC1CC[N+](C)(C)CC1 [Perifosine] + CS(=O)(=O)c1ccc(C(=O)Nc2ccc(Cl)c(-c3ccccn3)c2)c(Cl)c1 [vismodegib] (partner dose 5 µM)	95.1	86.9	91.8	93.4	94.9	82.5	112	85.7	51	92.7	62	78.5	82.6	119	93.3	64.3	101	84.4	92.4	89.4
